Data: PubChem BioAssay AID504332 (National Center for Advancing Translational Sciences (NCATS), 2011)
Out of some 350,000 compounds screened, about 31,000 (8.9%) were called active. Inconclusive results, whose numbers are uncertain, are shown with a selection of clear calls. Calls follow the shape of the dose curve; as a rule, active = well fitted inhibition curve with a large enough effect; inconclusive = small, poorly fitted or top-dose-only effect; inactive = no such curve, though single readings can be large or run the other way. Potencies beside an inconclusive call are fits to weak or partial responses and may not hold up. Where a SMILES comes first, the peptide text is derived from it. [ ]: non-standard residue; d: D form. The star is where a group is joined. Phe(4-Me) = Cc1ccc(C[CH](N)C(=O)O)cc1; Bz = O=C(c1ccccc1)*

Molecular target: Histone-lysine N-methyltransferase EHMT2 (Homo sapiens) (UniProt Q96KQ7)
Experiment: qHTS Assay for Inhibitors of Histone Lysine Methyltransferase G9a; also: nearly all actives have a fitted effect of over 75% in size
Settings: G9a H3K9 monomethylation, AlphaScreen, 2 h; activity, negative = inhibition: at 59 µM (top of the series) unless noted
Summary of the method: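 AlphaScreen detection with an anti-monomethyl H3K9 antibody quantified product after a 2 h room-temperature reaction containing 500 nM biotinylated H3K9 peptide, 20 µM SAM and 20 nM enzyme, which had been preincubated 15 min with compound.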
% is scaled to controls: 0 for no effect and ±100 for the full control effect; potency is read from the fitted curve at half-maximal effect; tags tell the direction and shape of the fitted curve.

Chain of UniProt Q96KQ7 (Q96KQ7 whole entry, looked up): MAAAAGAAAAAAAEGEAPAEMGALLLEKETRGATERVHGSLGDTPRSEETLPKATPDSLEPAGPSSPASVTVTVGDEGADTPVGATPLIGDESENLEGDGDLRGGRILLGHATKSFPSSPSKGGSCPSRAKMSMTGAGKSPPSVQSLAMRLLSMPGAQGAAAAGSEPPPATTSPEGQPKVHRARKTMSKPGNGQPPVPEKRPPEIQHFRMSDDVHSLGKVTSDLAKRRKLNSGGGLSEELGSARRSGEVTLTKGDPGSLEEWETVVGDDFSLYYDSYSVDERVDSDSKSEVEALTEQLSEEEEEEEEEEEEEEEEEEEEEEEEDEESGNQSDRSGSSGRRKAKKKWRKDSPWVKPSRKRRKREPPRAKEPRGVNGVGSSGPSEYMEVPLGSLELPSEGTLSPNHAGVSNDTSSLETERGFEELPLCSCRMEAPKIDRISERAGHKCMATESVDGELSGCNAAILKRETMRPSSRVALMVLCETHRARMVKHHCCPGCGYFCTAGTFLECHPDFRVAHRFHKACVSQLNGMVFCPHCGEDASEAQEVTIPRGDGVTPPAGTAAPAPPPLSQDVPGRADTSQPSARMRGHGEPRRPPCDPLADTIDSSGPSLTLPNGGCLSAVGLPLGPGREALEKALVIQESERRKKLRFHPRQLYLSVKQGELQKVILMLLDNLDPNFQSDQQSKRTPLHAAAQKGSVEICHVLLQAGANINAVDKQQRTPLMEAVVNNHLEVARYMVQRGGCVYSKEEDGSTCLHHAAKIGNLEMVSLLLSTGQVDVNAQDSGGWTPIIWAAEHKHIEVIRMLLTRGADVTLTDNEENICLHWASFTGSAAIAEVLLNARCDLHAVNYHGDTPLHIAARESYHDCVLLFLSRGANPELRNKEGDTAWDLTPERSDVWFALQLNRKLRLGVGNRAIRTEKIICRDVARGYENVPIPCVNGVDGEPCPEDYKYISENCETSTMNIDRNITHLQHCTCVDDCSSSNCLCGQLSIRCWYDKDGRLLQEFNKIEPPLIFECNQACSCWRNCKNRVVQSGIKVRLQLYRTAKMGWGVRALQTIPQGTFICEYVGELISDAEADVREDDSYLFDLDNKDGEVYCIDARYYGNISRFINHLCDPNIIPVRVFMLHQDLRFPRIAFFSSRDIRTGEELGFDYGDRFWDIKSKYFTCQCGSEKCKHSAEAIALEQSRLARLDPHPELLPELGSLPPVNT

| SMILES | Potency | activity, negative = inhibition |
| --- | --- | --- |
| CCOc1ccc(-c2nnc3ccc(SCc4ccc(C(=O)OC)o4)nn23)cc1 | active: 11.2 µM |  |
| O=C(O)c1ccccc1C(=O)Nc1ccc(Oc2ccc3ccccc3c2)cc1 | inconclusive: 44.7 µM [inhibitor, partial curve, poor fit] |  |
| Cc1ccc(N=C2NC(=O)/C(=C\c3cccs3)S2)cc1C | active: 2.82 µM |  |
| COc1ccc(CNC(=O)COC(=O)CCOc2ccc(C)cc2)cc1 | inconclusive: 89.1 µM [inhibitor, partial curve, poor fit] |  |
| Cc1ccc(CCNC(=O)C2CCC(=O)N(Cc3ccccc3F)C2)o1 (stereo not drawn) | active: 79.4 µM |  |
| CCCCNc1cc(F)nc(N)n1 | inactive |  |
| COc1cc(-c2nc(Cc3c(F)cccc3Cl)no2)cc(OC)c1OC | inconclusive: 50.1 µM [inhibitor, partial curve, poor fit] |  |
| Cc1nc(CC(=O)c2ccc(O)cc2O)cs1 | inconclusive: 89.1 µM [inhibitor, partial curve, poor fit] |  |
| CC1=C(C(=O)c2ccccc2)C(c2ccc(N3CCOCC3)cc2)NC(=O)N1 (stereo not drawn) | inconclusive: 79.4 µM [inhibitor, partial curve, poor fit] |  |
| Cc1ccc(C#CC[N+]2(C)CCCCC2)cc1 | inconclusive: 89.1 µM [inhibitor, partial curve, poor fit] |  |
| COc1cc(OC)c(C2N(c3cc(C)on3)C(=O)C3CCCN32)cc1OC (stereo not drawn) |  | inconclusive: -63.1% [inhibitor] |
| CCc1ccc(NC(=S)N(CCC(C)C)C2CCN(C(C)=O)CC2)cc1 | inconclusive: 2 µM [inhibitor, full curve] |  |
| Cc1cccc(NS(=O)(=O)c2ccc(C)c(C(=O)NCC(c3ccco3)N3CCCCC3)c2)c1 (stereo not drawn) | inconclusive: 50.1 µM [inhibitor, partial curve, poor fit] |  |
| COc1ccc(S(=O)(=O)N(C)c2ccccc2)c2cccnc12 | inconclusive: 89.1 µM [inhibitor, single point] |  |
| CCCCCN(C(=O)CCC(=O)OCC(=O)c1ccc(C(C)CC)cc1)c1c(N)n(CCCC)c(=O)[nH]c1=O (stereo not drawn) | inconclusive: 50.1 µM [inhibitor, partial curve, poor fit] |  |
| Cc1ccc(CC(NC(=O)c2ccccc2)C(=O)NC(CC(C)C)C(=O)O)cc1 (stereo not drawn) (Bz-[Phe(4-Me)]-Leu-OH; configuration not given here) | inconclusive: 39.8 µM [inhibitor, partial curve] |  |
| COc1cccc(OCCCCN2CC(C)OC(C)C2)c1 (stereo not drawn) | active: 10 µM |  |
| CCOc1cc2[nH]c(=S)n(CC3CCCO3)c(=O)c2cc1OCC (stereo not drawn) |  | inconclusive: -85.6% [inhibitor] |
| COc1ccc(/C=C2\Oc3cc(OCC(=O)N4CCC[C@H]4CO)ccc3C2=O)c(OC)c1 | inactive |  |
| COc1cc(-c2nc(Cn3nnc(C(=O)Nc4cccc(Cl)c4)c3C)c(C)o2)cc(OC)c1OC | inactive |  |
| COC(=O)CSC1=C(C#N)C(c2ccc(C)cc2)C2=C(CCCC2=O)N1 (stereo not drawn) | inconclusive: 0.891 µM [inhibitor, full curve, poor fit] |  |
| COc1ccc(-c2nc(S(=O)(=O)c3ccc(Cl)cc3)c(NCc3ccccc3)o2)cc1 | inactive |  |

| SMILES | Potency | activity, negative = inhibition |
| --- | --- | --- |
| CCN(CC(=O)Nc1c(F)cccc1F)C(=O)C1CCN(S(=O)(=O)c2ccc(F)cc2)CC1 |  | inactive: 3.39% [at 0.501 µM] |
| COc1ccc(C)cc1N(CC(=O)Nc1ccc(S(=O)(=O)N2CCCC2)cc1)S(C)(=O)=O |  | inactive: 22.3% [at 0.501 µM] |
| COc1ccc([N+](=O)[O-])cc1NC(=S)NC(NC(C)=O)C(Cl)(Cl)Cl (stereo not drawn) | active: 39.8 µM |  |
| c1ccc(-n2c(SCC3CCCCO3)nnc2-c2cccs2)cc1 (stereo not drawn) | inconclusive: 50.1 µM [inhibitor, partial curve] |  |
| Cc1csc(NC(=O)CSc2ccc([N+](=O)[O-])cn2)n1 | active: 50.1 µM |  |
| O=C(O)c1ccccc1C(=O)c1ccc(Br)s1 | inconclusive: 0.891 µM [inhibitor, full curve, poor fit] |  |
| CC(=O)c1cccc(S(=O)(=O)Nc2ccc3nc(C)sc3c2)c1 | inconclusive: 89.1 µM [inhibitor, single point] |  |
| Cc1ccc(/C=C2\SC(=S)N(CCC(=O)NNC(=O)c3ccccc3O)C2=O)cc1 | inactive |  |
| CCN(CC)CCCNc1ncnc2c1cnn2-c1ccc(C)c(C)c1 | inactive |  |
| C#CCOCCOCCOCCNc1nc(N2CCN(C(=O)CCCCCCCCCCNC(=O)[C@@H](CCC(=O)O)n3cc(CCCCCN)nn3)CC2)nc(N2CCN(C(=O)CCCCCCCCCCNC(=O)[C@H](CCCCN)n3cc(C[C@@H](C)CC)nn3)CC2)n1 |  | inactive: -15.7% [at 2.33 µM] |
| COc1cc(OC)cc(C(=O)Nc2ncc3c(n2)CC(C)CC3=O)c1 (stereo not drawn) | inconclusive: 79.4 µM [inhibitor, partial curve, poor fit] |  |
| Cc1ccc2c(c1)C(c1ccccc1)N(C(=O)c1c(F)cccc1Cl)CC(=O)N2 (stereo not drawn) | inactive |  |
| Cc1ccccc1NC(=O)COc1coc(CN2CCCc3ccccc32)cc1=O | active: 50.1 µM |  |
| Cc1ccc(-c2cc(C(=O)Nc3cccc(S(=O)(=O)N(C)C)c3)c3ccccc3n2)o1 | active: 8.91 µM |  |
| CC(=O)Nc1ccc(-c2ccccc2)s1 |  | inconclusive: -77.5% [inhibitor] |
| COc1cc(Br)cc(C2C3=C(CCCC3=O)N(c3ccc(F)cc3)C3=C2C(=O)CCC3)c1O | inconclusive: 50.1 µM [inhibitor, partial curve] |  |
| O=[N+]([O-])c1cccc(/C=C/c2nc[nH]c2[N+](=O)[O-])c1 | inconclusive: 89.1 µM [inhibitor, partial curve, poor fit] |  |
| CCOC(=O)CSc1nc2c(sc3ccccc32)c(=O)n1CCO | inactive |  |
| Cc1ccc(NC(=O)CSc2cn(CC(=O)N3CCCC3)c3ccccc23)cc1Cl | inactive |  |
| CCOc1ccc(NS(=O)(=O)c2ccc3c(c2)CCCN3C(=O)C2CCC2)cc1 | inactive |  |
| COc1ccccc1CNC(=O)c1cn(C)c2ccc(S(=O)(=O)N(C)C3CCCCC3)cc2c1=O | inactive |  |
